The RNAGym collection of RNA variant scans (doi:10.1101/gad.245936.114)
This sample is rich in variants without activity.

B1: tRNA (parent)
chain: CUCUCGGUAGCCAAGUUGGUUUAAGGCGCAAGACUUUAAUUUAUCACUACGAAAUCUUGAGAUCGGGCGUUCGACUCGCCCCCGGGAGAUUUUUUCCUCGAGCAA

Variants of: B1
Test: nonsense suppression (GFP-seq) (ratio to wild type); higher = more function; SUP4oc tRNA, yeast GFP reporter sort-seq
How it was run: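 Nonsense suppression (GFPSEQ) is the median GFP/RFP ratio of each sorting bin, weighted by the variant's estimated share of cells in that bin and expressed relative to the unmutated parent tRNA. Yeast strains carried genome-integrated variants of an ochre-suppressor tRNA from a library with ~3% random mutations, plus a galactose-driven GFP ochre reporter and RFP, and were grown in raffinose/galactose medium containing 80 mg/L adenine. Cells were sorted into GFP/RFP bins, each bin was Illumina-sequenced (phred ≥30), and variants were kept only with ≥100 reads and ≥30 cells.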

Nonsense suppression, ≤ 0.026:
CUCUCGGGAGACAAGUUGGUUUAAGGCGCAAGACUUUAAUUUAUCACUACGAAAUCUUGAGAUCGGGCGUUCGACUCGCCCCCGGGAGAUUUUUUCCUCGAGCAA [U8G C11A]
CUCUCGGGAGCCAAGUUGGGUUAAGGCGCAAGACUUUAAUUUAUCACUACGAAAUCUUGAGAUCGGGCGUUCGACUCGCCCUCGGGAGAUUUUUUCCUCGAGCAA [U8G U20G C82U]
CUCUCGGGAGCCAAGUUGGUUUAAGGCGCAAGACUUUAAUUUAUCACUACGAAAUCUUGAGAUCGGGCGUUCGACUCACCCCCGGGAGAUUUUUUCCUCGAGCAA [U8G G78A]
CUCUCGGGAGCCAAGUUGGUAUAAGGCGGAAGACUUUAAUUUAUCACUACGAAAUCUUGAGAUCGGGCGUUCGACUCGGCCCCGGGAGAUUUUUUCCUCGAGCAA [U8G U21A C29G C79G]
CUCUCGGGAGCCAAGUUGGUUUAAGGCGCAAGACUUUAAUUUAUCACUACGAAAUCUUGAGAUCGGGCGUUCGACUCGCCACCGGGAGAUUUUUUCCUCGAGCAA [U8G C81A]
CUCUCGGGAGCAAAGUUGGUUUAAGGCGCAAGACUUUAAUUUAUCACUACGAAAUCUUGAGAUCGGGCGUUCGACUCGCCUCCGGGAGAUUUUUUCCUCGAGCAA [U8G C12A C81U]
CUCUCGGGAGCCAAGUUGGUUUAAGGUGCAAGACUUUAAUUUAUCACUACGAAAUCUUGAGAUCGGGCGUUCGACUCGCCCCCGGGAGAUUUUUUCCUCGAGCAA [U8G C27U]
CUCUCGGGAGCUAAGUUGGUUUAAGGCGCAAGACUUUAAUUUAUCACUACGAAAUCUUGAGAUCGGGCGUUCGAUUCGCCCCCGGGAGAUUUUUUCCUCGAGCAA [U8G C12U C75U]
CUCUCGGGAGCCAAGUUGGUUUAAGGCGCAAGACUUUAAUUUAUCACUACGAAAUCUUGAGAUCGGGCGUUCGUCUCACCCCCGGGAGAUUUUUUCCUCGAGCAA [U8G A74U G78A]
CUCUCGGGAGCCAAGAUGGUUUAAGGCGCAAGACUUUAAUUUAUCACUACGAAAUCUUGAGAUCGGGCGUUCGAGUCGCCCCCGGGAGAUUUUUUCCUCGAGCAA [U8G U16A C75G]
CUCUCGGGAGCCAAGAUGGUUUAAGGCGCAAGACUUUAAUUUAUCACUACGAAAUCUUGAGAUCGGGCGUUCGAUUCGCCCCCGGGAGAUUUUUUCCUCGAGCAA [U8G U16A C75U]
CUCUCGGGAGCCAAAUUGGUCUAAGGCGCGAGACUUUAAUUUAUCACUACGAAAUCUUGAGAUCGGGCGUUCGACUCGCCCACGGGACAUUUUUUCCUCGAGCAA [U8G G15A U21C A30G C82A G88C]
CUCUCGGGAGCCAAGUUGGUUUAAGGCGCAAGACUUUAAUUUAUCACUACGAAAUCUUGAGAUUGGGCGUUCGACUCGCCCCCGGGAGAUUUUUUCCUCGAGCAA [U8G C64U]
CUCUCGGGAGACAAGUUGGUUUAAGGCGCAAGACUUUAAUUUAUCACUACGAAAUCUUGAGAUCGGGCGUUAGACUCGCCCCCGGGAGAUUUUUUCCUCGAGCAA [U8G C11A C72A]
CUCUCGGGAGCUAAGUUGGUUUAAGGCGCAAGACUUUAAUUUAUCACUACGAAAUCUUGAGAUCGGGCGUUCGACUCGCCCCCGGGAGAUUUUUUCCUCGAGCAA [U8G C12U]
CUCUCGGGAGCCAAGUUGGUUUAAGGGGCAAGACUUUAAUUUAUCACUACGAAAUCUUGAGAUCGGGCGUUCGACUCGCCCUCGGGCGAUUUUUUCCUCGAGCAA [U8G C27G C82U A87C]
CUCUCGGGAGCUAAGUUGGUUUAAGGCGUAAGACUUUAAUUUAUCACUACGAAAUCUUGAGAUCGGGCGUUCGUCUCGCCCCCGGUAGAUUUUUUCCUCGAGCAA [U8G C12U C29U A74U G86U]
CUCUCGGGAGCCAAGUUGGUUUAAGGCGAAAUACUUUAAUUUAUCACUACGAAAUCUUGAGAUCGGGCGUUCGACUCGCCCCCGGGAGAUUUUUUCCUCGAGCAA [U8G C29A G32U]
CUCUCGGGAGCCAAGUUGGUUUAAGGCGCAAGACUUUAAUUUAUCACUACGAAAUCUUGGGAUCGGGCGUUCGACUCGCCCCCGGGAGAUUUUUUCCUCGAGCAA [U8G A60G]
CUCUCGGGAGCCAAGCUGGUUUAAGGCGCAAGACAUUAAUUUAUCACUACGAAAUCUUUAGAUCGGGCGUUCGACUCGCCCCCGGGAGAUUUUUUCCUCGAGCAA [U8G U16C U35A G59U]
CUCUCGGGAGCCAAGUUGGUUUAAGGCGCAAUACUUUAAUUUAUCACUACGAAAUCUUGAGAUCGGGCGUUCGACUCGCCCCCGGGAGAUUUUUUCCUCGAGCAA [U8G G32U]
CUCUCGGGAGCCAAGGUGGUUUAAGGCGCAAGACUUUAAUUUAUCACUACGAAAUCUUCAGAUCGGGCGUUCGAUUCGCCCCCGGGAGAUUUUUUCCUCGAGCAA [U8G U16G G59C C75U]
CUCUCGGGAGCCAAGUUGGUUUAAGGCGCAAGACUUUAAUUUAUCACUACGAAAUCUUGAGCUCGGGCGUUCAACUCGCCCCCGGGACAUUUUUUCCUCGAGCAA [U8G A62C G73A G88C]
CUCUCGGGAGCCAAGUUGGUUUAAGGCGCAAGACUUUAAUUUAUCACUACGAAAUCUUGAGAUCGGGCGUUCGACUCGCCCCCGGAAGAUUUUUUCCUCGAGCAA [U8G G86A]
CUCUCGGGAGCCAAGUUGGGUUAAGGCGCAAGACUUUAAUUUAUCACUACGAAAUCUUGAAAUCGGGUGUUCGAACCGCCCCCGGGAUAUUUUUUCCUCGAGCAA [U8G U20G G61A C68U C75A U76C G88U]
CUCUCGGGAGCCAAGUUGGUUUAAGGCGCAAUACUUUAAUUUAUCACUACGAAAACUUGAGAUCGGGCGUUCGACUCGCCCCCGGGGGAUUUUUUCCUCGAGCAA [U8G G32U U55A A87G]
CUCUCGGGAGCCAAGUUGGUUUAAGGCGCAAGACUUUAAUUUAUCACUACGAAAUCUUGAGAUCGGGCGUUCCACUCGCCCCCGGGAGAUUUUUUCCUCGAGCAA [U8G G73C]
CUCUCGGGAGCCAAGUUGGUUUAAGGCGCAAGACUUUAAUUUAUCACUACGAAAUCUUGAGUUCAGGCGUUCGACUCGCCCCUGGGAGAUUUUUUCCUCGAGCAA [U8G A62U G65A C83U]
CUCUCGGGAGCCAAGUUAGUUUAAGGCGCAAGAAUUUAAUUUAUCACUACGAAAUCUUGAGAUCGGACGUUCGACUCGCCCCCGGGAGAUUUUUUCCUCGAGCAA [U8G G18A C34A G67A]
CUCUCGGGAGCCAAUUUGGUUUAAGGCGCAUGACUUUAAUUUAUCACUACGAAAUCUUGAGAACGGGCGUUCGACUCGCCCCCGGGAGAUUUUUUCCUCGAGCAA [U8G G15U A31U U63A]
CUCUCGGGAGCCAAGUUGGUUUAAGGCGCAAGACUUUAAUUUAUCACUACGAACUCUGGAGAUCGGGCGUUAGACUCGCCCCCGGGAGAUUUUUUCCUCGAGCAA [U8G A54C U58G C72A]
CUCUCGGGAGCCAAGUUGGUUUAAGGCGGAAGACUUUAAUUUAUCACUACGAAAUCUUGAGAUCGGGCGUUCGACUCGCCCCCGGGAGAUUUUUUCCUCGAGCAA [U8G C29G]
CUCUCGGGAGCCAAGUUGGUUUAACGCGCAAGACUUUAAUUUAUCACUACGAAAUCUUGAGAUCGGGCGUUCGACUCGCCCCCGGGAGAUUUUUUCCUCGAGCAA [U8G G25C]
CUCUCGGGAGCCAAGUUUGUUUAAGGCGCAAGACUUUAAUUUAUCACUACGAAAUCUUGAGAUCGGGCGUUCGACUCGCCCCCGGGAGAUUUUUUCCUCGAGCAA [U8G G18U]
CUCUCGGGAGCCAAGUUGGUUUAAGGCGCAACACUUUAAUUUAUCACUACGAACUCUUGAGAUCGGGCGUUCGACUCGCCCCCGGGAGAUUUUUUCCUCGAGCAA [U8G G32C A54C]
CUCUCGGGAGCCAAGUUGGUUUAAGGCGCAAGACUUUAAUUUAUCACUACGAAAUCUUGAGCUCGGGCGCUCGACCCGCCCCCGGUAGAUUUUUUCCUCGAGCAA [U8G A62C U70C U76C G86U]
CUCUCGGGAGCCAAGUUGGUUUAAGGCGCAAGACUUUAAUUUAUCACUACGAAAUCUUGAGAUCGGCCGUUCGACUCGCCCCCGGGAGAUUUUUUCCUCGAGCAA [U8G G67C]
CUCUCGGGAAGAAAGUUGGUUUAAGGCGCAAGACUUUAAUUUAUCACUACGAAAUCUUGAGAUCGGGCGUUCGACUCGCCCCCGGGAGAUUUUUUCCUCGAGCAA [U8G G10A C11G C12A]
CUCUCGGGAGCCAAGUUGGUUUAACGCGCAAGUCUUUAAUUUAUCACUACGAAAUCUUGAGAUCGGGCGUUCGACUCGCCCCCGGGAGAUUUUUUCCUCGAGCAA [U8G G25C A33U]
CUCUCGGGACCCAAGUUGGUUUAAGGCGCAAGACUUUAAUUUAUCACUACGAAAUCUUGAGAUCGCGCGUUCGACUCGCCCCCGGGAGAUUUUUUCCUCGAGCAA [U8G G10C G66C]
CUCUCGGGAGCCAAGUUGGUUUAAGGCGCAAGAAUUUAAUUUAUCACUACGAAAUCUUGAGAUCGGGCGUUCGACUCGCCCCCGGGAGAUUUUUUCCUCGAGCAA [U8G C34A]
CUCUCGGGAGCCAAGUUGGUUUAAGGCGCAAGAGUUUAAUUUAUCACUACGAAAUCUUGAGAUCGGGCGUUCGACUCGCCCCCGGGAGAUUUUUUCCUCGAGCAA [U8G C34G]
CUCUCGGGAGCCAAGUUGGUUUAAGGCGCAAGACUUUAAUUUAUCACUACGAAAUAUUGAGAUCGGGCGUUCGACUCGCCCCCGGGAGAUUUUUUCCUCGAGCAA [U8G C56A]
CUCUCGGGAGCCAAGUUGGUUUAAGGCGCAAGACUUUAAUUUAUCACUACGAAAUCUUGAGAUCGGGCGUUAGACUCGCCCCCGGGAGAUUUUUUCCUCGAGCAA [U8G C72A]
CUCUCGGGAGCCAAGUUGGUUUAAGGCGCAAGACUUUAAUUUAUCACUACGAAAUCUUGAGAUCGGGCGUUCGGCUCGCCCCCGGGAGGUUUUUUCCUCGAGCAA [U8G A74G A89G]
CUCUCGGGAGCCAAGUUGGUUUAAGGCGCAAGACUUUAAUUUAUCACUACGAAAUCUUGAGAUGGGGCGCUCGACUCGCCCCCGGGAGAUUUUUUCCUCGAGCAA [U8G C64G U70C]
CUCUCGGGAGCCAAGCGGGUUUAAGGCGCAAGACUUUAAUUUAUCACUACGAAAUCUUGAGAUCGGGCAUUCGACUCGCCCCCGUGAGAUUUUUUCCUCGAGCAA [U8G U16C U17G G69A G85U]
CUCUCGGGAGCCAAGUUGGUUUAAGGCGCAAGACUUUAAUUUAUCACUACGAAAUCUUUAGAUCGGGCGUUCGACUCGCCCCCGGGAGAUUUUUUCCUCGAGCAA [U8G G59U]
CUCUCGGGAGCCAAGUUGGUUUAAGGCGCAAGACUUUAAUUUAUCACUACGAAAUCUUGAGAUCGGGCGUUCGACUCGCCCCCUGGAGAUUUUUUCCUCGAGCAA [U8G G84U]
CUCUCGGGAGCCAAGUUGGUUUAAGGCGCAAGACUUUAAUUUAUCACUACGAAAUCUUGAGAUCGGGCGUUCGACUCGCCCCCAGGAGAUUUUUUCCUCGAGCAA [U8G G84A]
CUCUCGGGAGCCAAGUUGAUUUAAGGCGCAAGACUUUAAUUUAUCACUACGAAAUCUUGAGAUCGGGCGUUCGACUCGCCACCGAGAGAUUUUUUCCUCGAGCAA [U8G G19A C81A G85A]
CUCUCGGGAGCCAAGUUGGUUUAAGGCGCAACACUUUAAUUUAUCACUACGAAAUCUUGAGAUCGGGCGUCCGAGUCGCCCCCGGGAGAUUUUUUCCUCGAGCAA [U8G G32C U71C C75G]
CUCUCGGGAGCCAAGUUGGUUUAAGGCGCAAGACUUUAAUUUAUCACUACGAAAUCUUUAGAUCGGGCGUUCGACUCGCGCCCGGGAGAUUUUUUCCUCGAGCAA [U8G G59U C80G]
CUCUCGGGAGCCAAGUUGGUUUAAGGCGCAAGUCUUUAAUUUAUCACUACGAAAUCUUGUGAUCGGGCGUUCGACUCGCACCCGGGAGAUUUUUUCCUCGAGCAA [U8G A33U A60U C80A]
